Measured values from PubChem BioAssay AID504332 (National Center for Advancing Translational Sciences (NCATS), 2011).
The whole screen tested about 350,000 compounds, of which about 31,000 (8.9%) were called active. The inconclusive results got no clear call from the source; some entries with a clear call stand among them for comparison. Calls follow the shape of the dose curve; as a rule, active = well fitted inhibition curve with a large enough effect; inconclusive = small, poorly fitted or top-dose-only effect; inactive = no such curve, though single readings can be large or run the other way. Where the call is inconclusive, the potency comes from a doubtful curve fit.

These compounds were tested against Histone-lysine N-methyltransferase EHMT2 (Homo sapiens) (UniProt Q96KQ7) (assay: qHTS Assay for Inhibitors of Histone Lysine Methyltransferase G9a). Conditions: G9a H3K9 monomethylation, AlphaScreen, 2 h; activity, negative = inhibition: at 59 µM (top of the series) unless noted.
UniProt Q96KQ7, sequence (Q96KQ7 whole entry, looked up): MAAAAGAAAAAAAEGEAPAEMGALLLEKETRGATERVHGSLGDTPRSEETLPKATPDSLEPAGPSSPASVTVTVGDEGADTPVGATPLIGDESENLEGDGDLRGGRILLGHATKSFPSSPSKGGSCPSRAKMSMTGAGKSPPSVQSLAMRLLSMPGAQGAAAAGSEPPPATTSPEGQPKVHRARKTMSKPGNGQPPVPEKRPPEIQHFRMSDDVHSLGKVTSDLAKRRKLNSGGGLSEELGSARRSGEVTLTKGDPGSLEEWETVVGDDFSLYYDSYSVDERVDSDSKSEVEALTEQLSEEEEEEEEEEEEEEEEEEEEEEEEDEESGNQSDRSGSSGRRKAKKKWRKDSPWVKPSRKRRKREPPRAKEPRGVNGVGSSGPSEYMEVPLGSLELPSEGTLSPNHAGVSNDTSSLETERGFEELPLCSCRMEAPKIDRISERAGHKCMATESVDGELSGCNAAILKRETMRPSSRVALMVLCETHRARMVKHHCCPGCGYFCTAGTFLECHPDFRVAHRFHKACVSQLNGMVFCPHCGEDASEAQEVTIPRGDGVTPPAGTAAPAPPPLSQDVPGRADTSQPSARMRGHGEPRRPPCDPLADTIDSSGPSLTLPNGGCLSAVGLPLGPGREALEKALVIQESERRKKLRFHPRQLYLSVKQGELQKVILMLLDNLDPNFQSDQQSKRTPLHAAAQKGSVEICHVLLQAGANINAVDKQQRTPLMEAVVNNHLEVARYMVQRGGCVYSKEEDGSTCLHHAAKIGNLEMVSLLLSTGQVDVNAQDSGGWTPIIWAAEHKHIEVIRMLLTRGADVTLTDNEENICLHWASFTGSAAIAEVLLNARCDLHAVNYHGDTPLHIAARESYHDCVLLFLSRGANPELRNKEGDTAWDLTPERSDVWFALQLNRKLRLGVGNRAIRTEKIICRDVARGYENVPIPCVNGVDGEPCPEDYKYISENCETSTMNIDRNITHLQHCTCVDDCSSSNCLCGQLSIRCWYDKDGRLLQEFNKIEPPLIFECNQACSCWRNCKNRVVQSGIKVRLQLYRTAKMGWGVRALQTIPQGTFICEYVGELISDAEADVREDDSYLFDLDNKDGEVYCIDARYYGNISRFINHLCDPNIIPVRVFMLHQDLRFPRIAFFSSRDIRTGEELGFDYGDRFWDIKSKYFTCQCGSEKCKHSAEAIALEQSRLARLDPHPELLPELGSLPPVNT
Summary of the method: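 Readings reflect AlphaScreen signal from monomethyl-H3K9 antibody detection. HMT at 20 nM; substrate b-H3K9 500 nM; cofactor SAM 20 uM; 2 h RT reaction; compounds tested as titrations in qHTS with 15 min preincubation.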
% is scaled to controls: 0 for no effect and ±100 for the full control effect; potency is read from the fitted curve at half-maximal effect; tags tell the direction and shape of the fitted curve.
Also: nearly all actives have a fitted effect of over 75% in size.

| Compound | Potency | activity, negative = inhibition |
| --- | --- | --- |
| COc1ccc2nc(SC(C)C(=O)NCC(=O)Nc3ccc(F)c(F)c3F)[nH]c2c1 (stereo not given) | active: 50.1 µM | – |
| CCCSCCCNC(=O)c1ccc(Cn2c(=O)c3cccn3c3cccnc32)cc1 | – | inactive: 10.1% |
| CCc1cccc(C)c1NS(=O)(=O)c1cccs1 | inconclusive: 0.631 µM [inhibitor, full curve] | – |
| CC(C)NS(=O)(=O)c1ccc2nc(NC(=O)c3cncc(Br)c3)sc2c1 | inconclusive: 28.2 µM [inhibitor, single point] | – |
| O=C(CSC1=NC2(CCCCCC2)N=C1c1ccccc1)Nc1ccc2c(c1)OCCO2 | inconclusive: 89.1 µM [inhibitor, single point] | – |
| Cc1ccc(N2C(=O)C3ON(c4ccccc4)C(c4ccncc4)C3C2=O)cc1 (stereo not given) | inconclusive: 0.891 µM [inhibitor, single point] | – |
| CCOC(=O)N1CCC(Nc2cccc(SC)c2)CC1 | inconclusive: 28.2 µM [inhibitor, single point] | – |
| Cc1cc(C)cc(OC(C)C(=O)Nc2ccccc2C(=O)NCc2cccnc2)c1 (stereo not given) | active: 50.1 µM | – |
| Cc1ccc[n+](C(C)C(=O)Nc2ccc(C)c([N+](=O)[O-])c2)c1 (stereo not given) | – | inactive: 10.8% [at 102 µM] |
| CCOC(=O)c1cc(-c2ccc3c(c2)OCO3)nc2onc(C)c12 | inconclusive: 89.1 µM [inhibitor, single point] | – |
| CCn1nc(C)c(NC(=O)c2ccc(Cl)cc2)c1C | active: 3.55 µM | – |
| COc1ccc(CCC(=O)N2CCN(c3ccc(OC)cc3)CC2)cc1 | inconclusive: 89.1 µM [inhibitor, single point] | – |
| COc1ccccc1N1CCN(C(=O)c2cccc(S(=O)(=O)NCc3cccnc3)c2)CC1 | inconclusive: 39.8 µM [inhibitor, single point] | – |
| COc1ccc(N2CCN(C(=O)c3ccc4c(c3)[nH]c(=S)n3c5ccccc5nc43)CC2)cc1 | active: 12.6 µM | – |
| COc1cc(C(=O)NC(C)c2ccc3ccccc3c2)cc(Cl)c1O (stereo not given) | inconclusive: 89.1 µM [inhibitor, single point] | – |
| Clc1cccc(Nc2nc(N3CCOCC3)nc(N3CCOCC3)n2)c1 | active: 50.1 µM | – |
| Cc1ccc(/C([O-])=C(/C(=S)NCc2ccco2)[n+]2ccccc2)cc1 | active: 2.51 µM | – |
| CCc1noc(C)c1C(=O)N(CC(C)C)c1c(N)n(Cc2ccccc2)c(=O)[nH]c1=O | – | inactive: -7.94% [at 102 µM] |
| COc1ccc(NC(=O)c2sc3nc(C)c(C(=O)Nc4ccc(C)cc4C)c(-c4ccc(C)o4)c3c2N)cc1 | inconclusive: 35.5 µM [inhibitor, single point] | – |
| O=C(COc1ccc(F)cc1Cl)Nc1ccc(S(=O)(=O)Nc2nccs2)cc1 | active: 31.6 µM | – |
| COc1ccc(C(c2sc3nc(C)nn3c2O)N2CC(C)OC(C)C2)cc1OC (stereo not given) | – | inactive: 18.8% |
| CC1(C)CC(=O)c2cc(-c3nc(-c4ccc(Cl)cc4)cs3)c(=O)n(-c3ccc(Cl)cc3)c2C1 | – | inactive: -1.12% |
| C=C(C)Cn1c(-c2ccncc2)n[nH]c1=S | active: 14.1 µM | – |
| Cc1cccc2sc(NC(=O)Cn3c(C)csc3=O)nc12 | inconclusive: 79.4 µM [inhibitor, partial curve, poor fit] | – |

| Compound | Potency | activity, negative = inhibition |
| --- | --- | --- |
| COc1ccc(S(=O)(=O)N2CCOCC2)cc1OC | – | inactive: 1.37% |
| CC1CCCCN1CC(=O)NC(=O)NCc1ccccc1 (stereo not given) | inconclusive: 17.8 µM [inhibitor, single point] | – |
| COc1ccc(OCCCCn2c(C3CC(=O)N(c4cccc(Cl)c4)C3)nc3ccccc32)cc1 (stereo not given) | inconclusive: 3.16 µM [inhibitor, partial curve, poor fit] | – |
| COc1ccc(-c2ccnc(SCC(=O)N3CCN(c4ccccc4)CC3)n2)cc1 | – | inactive: 4.69% [at 102 µM] |
| O=S(=O)(Nc1ccc(-c2ccc3nncn3n2)cc1)c1ccc(Cl)s1 | inconclusive: 79.4 µM [inhibitor, partial curve, poor fit] | – |
| Cc1ccc(Cn2ccnc2SCC(=O)NCc2ccc(F)cc2)cc1 | – | inactive: -33.3% |
| CCOC(=O)CSc1nc2sc3c(c2c(=O)[nH]1)CC(C)(CC)OC3 (stereo not given) | active: 31.6 µM | – |
| CCOC(=O)CC1C(=O)NCCN1C(=O)c1cc2c(=O)n3cccc(C)c3nc2s1 (stereo not given) | inconclusive: 100 µM [inhibitor, single point] | – |
| COc1cccc(-c2nnn(CC(=O)O)n2)c1 | inconclusive: 35.5 µM [inhibitor, single point] | – |
| CC(C)CCNC(=O)c1ccc2c(c1)NC(=O)C(CS(=O)(=O)Cc1cccc(Br)c1)N2 (stereo not given) | active: 12.6 µM | – |
| O=C(Cc1cccs1)N/N=C/C=C/c1ccco1 | active: 39.8 µM | – |
| CCOc1ccc(NC(=O)c2cn(C)c(=O)c3cc(OC)c(OC)cc23)cc1 | – | inactive: -0.318% |
| CCOc1ccc(-c2nnc(SCC(=O)NC(C)(C)C)nc2-c2ccc(OCC)c(OC)c2)cc1OC | active: 50.1 µM | – |
| O=C(Nc1cccc2cccnc12)c1cccc(N2C(=O)CCC2=O)c1 | – | inactive: 1.61% |
| O=C(CSc1nnc(NC(=O)c2ccco2)s1)Nc1ccccc1Cl | – | inactive: 15.1% [at 102 µM] |
| OCC[C@@H]1C[C@H](O)[C@@H](O)[C@@]2(Cc3ccccc3O2)O1 | – | inactive: 9.06% [at 102 µM] |
| CCS(=O)(=O)N1CCc2cc(C(=O)NCCc3ccccc3)ccc21 | inconclusive: 35.5 µM [inhibitor, partial curve, poor fit] | – |
| CCOC(=O)C1CCCN(c2ccc(NC(=O)c3snc4c(=O)[nH]cnc34)cc2)C1 (stereo not given) | – | inactive: -5.45% |
| COc1ccc(-c2onc(C)c2C)cc1S(=O)(=O)N(C)Cc1ccco1 | – | inactive: -5.81% |
| CCOC(=O)C1CCC(CN(Cc2ccc(Cl)cc2)S(=O)(=O)c2ccc(Br)cc2)CC1 (stereo not given) | – | inactive: 7.33% |
| CCOC(=O)c1c(NC(=O)COC(=O)CCOc2ccc(OCC)cc2)sc(C(=O)N(C)C)c1C | inconclusive: 44.7 µM [inhibitor, partial curve, poor fit] | – |
| COc1ccc(CCC(=O)Nc2cc3c4c(c2)CCC(=O)N4CCC3)cc1 | inconclusive: 79.4 µM [inhibitor, partial curve, poor fit] | – |
| CCOC(=O)c1c(NC(=O)CSc2nnc(-c3cccnc3)n2Cc2ccco2)sc(C)c1C | inconclusive: 25.1 µM [inhibitor, single point] | – |
| COc1ccc(CCNc2nc(-c3ccccn3)cs2)cc1OC | inconclusive: 50.1 µM [inhibitor, partial curve] | – |

| Compound | Potency | activity, negative = inhibition |
| --- | --- | --- |
| CCCc1c(OCCCCc2nn[nH]n2)ccc(C(C)=O)c1O | inconclusive: 39.8 µM [inhibitor, partial curve, poor fit] | – |
| CCN(CCCNC(=O)c1cc2cc3ccc(C)cc3nc2s1)c1ccccc1 | – | inactive: -31.7% |
| Cc1c(C(=O)Nc2cccc(S(=O)(=O)N3CCCC3)c2)oc2ccccc12 | inconclusive: 79.4 µM [inhibitor, partial curve, poor fit] | – |
| COc1ccc(C2CC(c3cccs3)=Nc3ccccc3S2)cc1 (stereo not given) | inconclusive: 39.8 µM [inhibitor, single point] | – |
| Nc1cc(-c2ccccc2)nn1Cc1ccc(Cl)cc1 | inconclusive: 22.4 µM [inhibitor, single point] | – |
| CCS(=O)(=O)N1CC(=O)N(c2cccc(Cl)c2C)C(C)(C(=O)NC2CCCCC2)C1 (stereo not given) | – | inactive: 4.54% |
| O=[N+]([O-])c1ccc(Oc2ccc(-c3cnc4ccccc4n3)cc2[N+](=O)[O-])cc1 | inconclusive: 79.4 µM [inhibitor, partial curve, poor fit] | – |
| O=C(COc1ccc(Cl)cc1Cl)NN1C(=O)C2C3C=CC([C@@H]2C1=O)C31CC1 (stereo not given in full) | inconclusive: 44.7 µM [inhibitor, partial curve, poor fit] | – |
| COc1ccc(/C=C\c2onc(C)c2S(=O)(=O)N2CCC(C(=O)NCc3ccco3)CC2)cc1 | inconclusive: 50.1 µM [inhibitor, partial curve, poor fit] | – |
| COc1ccc(NC(=O)C2CCCN2S(=O)(=O)c2ccc(Cl)cc2)cc1 (stereo not given) | – | inactive: -37.9% [at 102 µM] |
| O=c1[nH]c2sc3c(c2c2nncn12)CCCC3 | – | inactive: -13.3% |
| CCOC(=O)CCNC(=O)Nc1ccc2nc(C)n(Cc3ccccc3Cl)c(=O)c2c1 | inconclusive: 3.55 µM [inhibitor, partial curve, poor fit] | – |
| Cn1c(Cl)cnc1C1CC(=O)c2cc(Cl)ccc2O1 (stereo not given) | inconclusive: 12.6 µM [inhibitor, partial curve, poor fit] | – |
| CCOc1ccc(C(=O)NC(=S)Nc2cccnc2)cc1[N+](=O)[O-] | inconclusive: 44.7 µM [inhibitor, single point] | – |
| O=C1CC(N2CCN(c3ccc(F)cc3)CC2)C(=O)N1c1ccccc1 (stereo not given) | inconclusive: 50.1 µM [inhibitor, partial curve] | – |
| COc1ccc(CCNC(=O)COc2ccc([N+](=O)[O-])cc2)cc1 | – | inactive: -8.82% |
| CN1CCN(C(=S)c2ccc(N(C)C)cc2)CC1 | inconclusive: 5.62 µM [inhibitor, partial curve, poor fit] | – |
| CC(NC(=S)NCc1ccccc1)C12CC3CC(CC(C3)C1)C2 (stereo not given) | inconclusive: 17.8 µM [inhibitor, partial curve] | – |
| CC(C)(O)C#Cc1ccc([C@@H]2C[C@H]3CN(c4ccccc4)C(=O)[C@]34CCCN24)s1 | inconclusive: 56.2 µM [inhibitor, partial curve, poor fit] | – |
| O=C(c1cccnc1)n1nc(NCc2ccccc2)nc1NCc1ccccc1 | inconclusive: 79.4 µM [inhibitor, partial curve, poor fit] | – |
| CC(=O)Nc1cccc(NC(=O)CSc2ccc(C(F)(F)F)cc2[N+](=O)[O-])c1 | inconclusive: 31.6 µM [inhibitor, partial curve, poor fit] | – |
| O=c1c(=O)n(-c2cccc(Cl)c2)ccn1Cc1cccc(F)c1 | inconclusive: 35.5 µM [inhibitor, partial curve, poor fit] | – |
